Test results as given in ChEMBL document CHEMBL4888484, “Replenishing the malaria drug discovery pipeline: Screening and hit evaluation of the MMV Hit Generation Library 1 (HGL1) against asexual blood stage Plasmodium falciparum ,using a nano luciferase reporter read-out” (2022).
The campaign covered roughly 150,000 compounds. About 540 (0.36%) showed an effect of 50% or more. This is one part of the list.

Tested on: Plasmodium falciparum
Assay: Primary screen in NF54 nanoGlo assay, in single point, at 2uM, 72h; a lower Z score goes with more inhibition
Assay type: functional, Erythrocyte
Settings: timepoint 72 hour

SMILES | % Inhibition | Z score
Cc1csc(CNC(=O)C(=O)NCCc2ccc3c(c2)OCO3)n1 | 0% | -0.08
c1ccc(COc2ccc(-c3cn[nH]c3)cc2)cc1 | -12% | 1.58
CNCCc1c(-c2ccccc2)[nH]n(-c2ccccc2)c1=O | 82% | -6.33
Cc1noc(C)c1NC(=O)N1CCS(=O)(=O)CC1 | 1% | -0.18
O=C(NCCN1CCN(c2cccc(Cl)c2)CC1)c1n[nH]c2c1COc1ccccc1-2 | -5% | 0.84
CC(=O)NC1CCC(NCCOc2cccc(Cl)c2)CC1 (stereo unspecified) | -11% | 2.04
CC(C)(C)C(=O)NCCCC(=O)N(CC1CC1)CC(F)(F)F | 0% | -0.02
Cc1nn(CC(=O)Nc2csnc2-c2cccc(C(F)(F)F)c2)c(=O)n1C | 6% | -0.72
C[C@H](NS(C)(=O)=O)c1ncnn1C1Cc2ccccc2C1 | -8% | 0.99
C[C@H]1CN(c2nccnc2C#N)CCN1c1nccc(C(F)(F)F)n1 | -5% | 0.9
CC(C)(C)OC(=O)N[C@H]1CCN(c2ccc(-c3ccccc3F)nn2)C1 | -1% | 0.15
CC(=O)N1CCN(C(=O)c2c(-c3cccs3)noc2[C@H](C)O)CC1 | -4% | 0.6
Cc1ccc([C@@H]2c3[nH]c4ccccc4c3CCN2S(=O)(=O)c2cccc(F)c2)cc1 | -9% | 1.1
Cc1ccc(Cl)cc1NCC(=O)NCC(F)(F)F | 3% | -0.42
Cc1ccc(-c2nc(CN(C)[C@H]3CCS(=O)(=O)C3)co2)c(C)c1 | -11% | 1.72
CC(C)(C)CC(=O)NC[C@H](Cc1cccnc1)C(=O)O | 1% | -0.19
C[C@@H]1Oc2ccc(NC(=O)c3occc3-c3ccccc3)cc2NC1=O | -13% | 1.21
Cc1ccc(CNC(=O)CCc2nnc(C(=O)Nc3ccc(F)cc3)s2)o1 | -9% | 1.57
Cc1cc(C)nc(CCNc2nc3c(s2)c(C)nn3C)n1 | 8% | -0.75
Cc1c(-c2ccc(F)cc2)nn2c(-c3ccncc3)ccnc12 | -8% | 1.16
O=C1N(Cc2ccccc2F)CCC[C@@]12CCN(Cc1cccnc1)C2 | 2% | -0.31
O=C(Nc1nccs1)c1ccc2c(c1)OCCO2 | -18% | 3.39

SMILES | % Inhibition | Z score
O=C(Cc1ccccc1)Nc1ccc(N2CCCN(Cc3cccc(C(F)(F)F)c3)C2=O)cc1 | -10% | 1.28
COc1cc2c(-c3ccccc3)c(C)oc2cc1CN1CCN(C)CC1 | -13% | 1.95
Cc1sc(-c2cc(C(F)(F)F)[nH]n2)cc1S(=O)(=O)N1CCN(C)C(=O)C1 | -9% | 1.79
CCO[C@H](c1noc(CCn2cccn2)n1)C1CCCC1 | -11% | 1.48
O=C(NC1(c2c(F)cccc2F)CCCC1)[C@H]1CCS(=O)(=O)C1 | -5% | 0.97
CN1CC(C(=O)N2CCCC2c2cccc3c2OCCO3)CC1=O (stereo unspecified) | -5% | 0.9
CN(CCc1cn[nH]c1)Cc1cnc2ccccc2c1 | -6% | 1.24
Fc1cccc(-c2noc(C3(c4cccc(Cl)c4)CCOCC3)n2)c1 | -9% | 1.74
Cc1c(CC(=O)NC2CC2)c2c(n1Cc1ccccc1F)CCCC2=O | -3% | 0.52
CCCS(=O)(=O)NCC1(N2CCOCC2)CCCCC1 | -1% | 0.16
COC[C@H](Cc1ccccc1)NCc1ccc(CN2CCCC2)cc1 | 0% | -0.04
COc1ccccc1N1CCN(c2snnc2C(N)=O)CC1 | -29% | 3.44
Cc1cc(C(=O)Nc2nc(-c3ccc4c(c3)CCC4)n[nH]2)no1 | 33% | -0.69
O=S(=O)(Nc1cnc(N2CC3CCC(C2)O3)nc1)c1ccco1 | 0% | 0.04
CC(C)C(=O)N1CCN(c2ccc3c(c2)OCO3)C(=O)[C@@H]1C | -14% | 2.42
O=C(c1cc(-c2ccccc2F)n[nH]1)N1CCC[C@@](O)(CO)CC1 | -8% | 1.38
CN(C)c1nn(CC(=O)Nc2ccc3c(c2)OCO3)c(=O)c2ccccc12 | 5% | -0.79
CCC(C)(C(=O)NC1CCCC1)N(C(=O)c1cccs1)C1CCCO1 (stereo unspecified) | 41% | -5.33
COC(=O)N1CCC(CNC(=O)c2ccc(Br)o2)CC1 | -8% | 1.27
CCOc1cc(CNC2CC(F)(F)C2)ccc1OC | -2% | 0.38
Cc1nccc(N2CCC[C@H](CNC(=O)c3ccoc3)C2)n1 | -19% | 2.04
